# Data from paper PMC4336329 (PLoS ONE, 2015).
# Out of some 310,000 compounds screened, about 14,000 (4.5%) showed an effect of 50% or more. The effect is printed as a negative number. Some of the results follow.
# Target: human ether-à-go-go-related gene (hERG) potassium channel (human, UniProt Q12809)
# Experiment: primary screen, population patch clamp on CHO cells stably expressing hERG
# 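Further: peak tail current of the secondary pulse compared with the same well before compound.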
# Chain of human ether-à-go-go-related gene (hERG) potassium channel (Q12809 whole entry, looked up): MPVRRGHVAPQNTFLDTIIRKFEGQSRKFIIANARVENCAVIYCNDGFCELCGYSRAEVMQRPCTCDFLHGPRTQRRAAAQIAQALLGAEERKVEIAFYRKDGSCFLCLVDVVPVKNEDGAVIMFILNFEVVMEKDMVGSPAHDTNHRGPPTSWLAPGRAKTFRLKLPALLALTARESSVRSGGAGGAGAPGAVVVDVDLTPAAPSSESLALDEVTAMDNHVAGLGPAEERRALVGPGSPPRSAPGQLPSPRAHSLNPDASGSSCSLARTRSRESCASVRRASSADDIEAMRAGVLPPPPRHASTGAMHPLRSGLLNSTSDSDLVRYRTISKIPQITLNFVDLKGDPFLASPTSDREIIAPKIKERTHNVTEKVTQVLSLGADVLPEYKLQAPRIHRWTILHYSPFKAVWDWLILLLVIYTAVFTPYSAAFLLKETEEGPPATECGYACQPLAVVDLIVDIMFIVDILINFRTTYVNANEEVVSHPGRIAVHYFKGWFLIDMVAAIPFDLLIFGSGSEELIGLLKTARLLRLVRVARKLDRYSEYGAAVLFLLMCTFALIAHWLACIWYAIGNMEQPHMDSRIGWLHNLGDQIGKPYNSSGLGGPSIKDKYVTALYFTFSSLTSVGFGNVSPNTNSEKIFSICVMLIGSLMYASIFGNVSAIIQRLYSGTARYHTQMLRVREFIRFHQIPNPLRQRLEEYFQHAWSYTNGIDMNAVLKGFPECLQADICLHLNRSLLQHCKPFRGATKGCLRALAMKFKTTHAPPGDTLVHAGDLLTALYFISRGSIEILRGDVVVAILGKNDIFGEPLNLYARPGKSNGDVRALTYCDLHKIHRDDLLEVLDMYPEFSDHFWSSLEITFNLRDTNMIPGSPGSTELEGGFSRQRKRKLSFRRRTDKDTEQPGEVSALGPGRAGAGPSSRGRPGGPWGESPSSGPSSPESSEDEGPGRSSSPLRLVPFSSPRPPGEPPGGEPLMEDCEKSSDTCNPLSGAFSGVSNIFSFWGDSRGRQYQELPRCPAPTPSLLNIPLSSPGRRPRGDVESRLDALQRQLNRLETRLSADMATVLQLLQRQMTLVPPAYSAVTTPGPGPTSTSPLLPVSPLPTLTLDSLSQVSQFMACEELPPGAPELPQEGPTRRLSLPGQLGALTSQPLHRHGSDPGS
row,SMILES,"hERG current change (%, negative = inhibition) at 10uM [%]"
1,CCCN1C[C@H](CSC)C[C@@H]2c3cccc4[nH]cc(c34)C[C@H]21.CS(=O)(=O)O,-35.3
2,CCn1c(SCC(N)=O)nnc1-c1ccco1,3.15
3,CCCCCn1c(SCc2ccncc2)nc2cc(C(=O)NCc3ccco3)ccc2c1=O,-22
4,Cc1nc(-c2ccc(S(=O)(=O)NCc3ccccn3)s2)cs1,4.5
5,O=C(O)c1cc([N+](=O)[O-])ccc1NCc1ccccn1,12.7
6,CC1(C(=O)O)CCC(C(=O)Nc2ccc(OC(F)(F)Cl)cc2)C1(C)C (stereo not shown),20.9
7,O=C(CSc1nnc(-c2ccccc2Br)o1)N1CCOCC1,13.1
8,CC(=O)Nc1ccc(OCC(O)Cn2c3ccccc3c3ccccc32)c(C)c1 (stereo not shown),15.5
9,COc1ccc(-c2nc3ccccc3c(C(=O)Nc3ccc(S(=O)(=O)Nc4cc(C)on4)cc3)c2C)cc1,-7.09
10,CC(=O)NC(=S)Nc1ccc(S(=O)(=O)Nc2nc(C)cc(C)n2)cc1,39.5
11,CCCc1nc2ccccc2c(=O)n1-c1ccccc1OC,0.584
12,Cc1ccccc1N1C(S)=C(C#N)C(=O)NC1c1ccco1 (stereo not shown),0.877
13,CCOc1ccc(S(=O)(=O)N2CCC(C(=O)NCC3CCCO3)CC2)cc1Cl (stereo not shown),-9.19
14,CSc1ccccc1OCc1cc(C(=O)N2CCN(Cc3nccn3C)CC2)no1,-44.3
15,CN1C(=O)NC(=O)/C(=C\c2ccc([N+](=O)[O-])o2)C1=O,15.3
16,O=S(=O)(Nc1ccc(OC(F)F)cc1)c1ccc(-c2ccon2)s1,-15.3
17,CCc1ccc(CN(C)C(=O)C2CCC(=O)N(Cc3ccccn3)C2)cc1 (stereo not shown),-1.48
18,CC1(C)CC2CC(C)(CN2C(=O)COC(=O)c2cncc(Br)c2)C1 (stereo not shown),-13.6
19,CCCCC(CC)C(=O)Nc1ccccc1C#N (stereo not shown),-4.83
20,O=C(N1CCN(Cc2ccc3c(c2)OCO3)CC1)C(Cl)(Cl)Cl,-0.14
21,CC(=O)Oc1ccc(C(=O)Nc2ccc3c(c2)C(=O)N(CCC(=O)O)C3=O)cc1,11.8
22,O=C(CSc1ncnc2scc(-c3ccccc3)c12)NC1CCS(=O)(=O)C1 (stereo not shown),-4.53

row,SMILES,"hERG current change (%, negative = inhibition) at 10uM [%]"
1,N#Cc1c(NCCCO)nc(-c2ccccc2)c2c1CCCC2,-6.44
2,CCc1ccc(NC(=O)C2CCN(S(=O)(=O)c3c(C)[nH]c(=O)[nH]c3=O)CC2)cc1,-1.88
3,O=C(COc1ccc(Cl)cc1)OCC(=O)N1CCCC1,9.51
4,COC(=O)C1=C(c2ccc(C(C)=O)cc2)C[C@@H]2CC[C@H]1N2C(=O)N1CCC(C)CC1,-24.2
5,COc1ccc(-c2nn(Cc3ccccc3)cc2C(=O)N2CCN(c3ccccn3)CC2)cc1OC,-42.3
6,CCn1cc2c(c1-c1cccc(C)c1)c(=O)n(C)c(=O)n2C,6.03
7,c1ccc(-n2ncc(-c3nn[nH]n3)n2)cc1,13.3
8,NC(=O)C1CCCN(Cc2ccc3ccccc3c2)C1 (stereo not shown),4.89
9,CSc1ccccc1C(=O)Nc1cccc(C(C)=O)c1,1.31
10,Cl.O=C(NC12CC3CC(CC(C3)C1)C2)OCCNC1CCCCC1,17.9
11,Cc1cccc(OCc2nnc(SCc3cc(=O)n4cc(Br)ccc4n3)o2)c1,-41.5
12,COc1ccc(/C=C/C(=O)c2ccc[nH]2)cc1OC,-0.0299
13,CCCCCCSc1nnc2[nH]c(=O)cc(N)n12,6.09
14,Cc1cc(C)c2cc(CN(Cc3ccc4c(c3)OCO4)Cc3nnnn3Cc3ccco3)c(=O)[nH]c2c1,-6.62
15,CN(CC1CCCO1)S(=O)(=O)c1ccc(C(=O)N2CCN(c3ccccc3)CC2)cc1 (stereo not shown),-8.9
16,CCN(c1ccccc1)S(=O)(=O)c1cccc(C(=O)NCC2(N(C)C)CCCCC2)c1,-60.5
17,O=C(CSc1nc2nc(-c3cccs3)cc(C(F)(F)F)c2c(=O)[nH]1)Nc1ccc(F)c(F)c1,-19.8
18,COc1cccc(C(C(=O)NC2CCCC2)N(CC2CCCO2)C(=O)Cc2cccs2)c1 (stereo not shown),10.7
19,Cc1cc2oc(=O)c(CC(=O)O)c(C)c2c2occ(C(C)(C)C)c12,13.4
20,Cc1ccc(C(NC(=O)N2CCOCC2)=C(Cl)Cl)cc1F,-14
21,NS(=O)(=O)c1ccc(CCNc2nc(CN3CCCCC3)nc3sc4c(c23)CCC4)cc1,-72.9
